Screen size: about 2,100 compounds; about 1,100 (52%) were called active. So high a share suggests a set chosen from earlier hits. The inconclusive results got no clear call from the source; some entries with a clear call stand among them for comparison. Calls follow the shape of the dose curve; as a rule, active = well fitted inhibition curve with a large enough effect; inconclusive = small, poorly fitted or top-dose-only effect; inactive = no such curve, though single readings can be large or run the other way. Potencies of inconclusive entries are left out as doubtful fits.
biological target: DNA dC->dU-editing enzyme APOBEC-3G (Homo sapiens) (UniProt Q9HC16); assay: qHTS for inhibitors of Vif-A3G interactions: Cherry picks counterscreen; conditions: HeLa A3G-eYFP + Vif (tagged APOBEC3G with the HIV-1 protein that degrades it), eYFP fluorescence, 24 h;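 also: hits raise yellow fluorescence by blocking Vif-driven A3G-eYFP degradation; nearly all actives have a fitted effect of over 70% in size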;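 as to max response: max response given as percent of control signal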
Method in brief: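 Readout is eYFP fluorescence (488 nm excitation, 500-530 nm emission) measured on Acumen Explorer after 24 h compound exposure, several concentrations, at 37 deg C. Cells: HeLa stably co-expressing Vif and C-terminally eYFP-tagged A3G; MG132 positive control.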
Potency is read from the fitted curve at half-maximal effect; tags tell the direction and shape of the fitted curve.

Chain of UniProt Q9HC16 (Q9HC16 whole entry, looked up): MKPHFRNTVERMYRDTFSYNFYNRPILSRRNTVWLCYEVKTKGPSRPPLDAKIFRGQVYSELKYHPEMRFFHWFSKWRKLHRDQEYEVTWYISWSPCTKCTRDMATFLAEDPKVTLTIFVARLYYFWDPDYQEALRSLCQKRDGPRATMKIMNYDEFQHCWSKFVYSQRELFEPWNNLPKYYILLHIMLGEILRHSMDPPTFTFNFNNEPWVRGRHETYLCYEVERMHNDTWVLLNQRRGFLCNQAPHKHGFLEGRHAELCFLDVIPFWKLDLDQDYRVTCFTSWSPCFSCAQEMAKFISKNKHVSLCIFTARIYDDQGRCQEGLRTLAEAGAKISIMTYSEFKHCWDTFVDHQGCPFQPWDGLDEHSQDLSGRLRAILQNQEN

Structure (SMILES)	max response	Potency
Cc1sc2ncn(CC(=O)NCc3ccccc3)c(=O)c2c1C	inactive: -26.2%	–
Cc1ccc(CNC(=O)c2cccc(Nc3nc4ccccc4n4nnnc34)c2)cc1	–	inconclusive [inhibitor, partial curve]
Cc1cccc(/C=C/C(=O)c2ccc([N+](=O)[O-])o2)c1	inactive: -131%	–
N#CC1=C(N)C(C#N)(C#N)[C@H](c2ccoc2)[C@H]2CN(Cc3ccccc3)CC=C12	–	inconclusive [inhibitor, single point]
Cc1ccc(C(=O)NC(=C(Cl)Cl)S(=O)(=O)c2ccc(Cl)cc2)cc1	–	inconclusive [inhibitor, single point]
NC(=O)CC(NC(=O)Cc1ccc(Br)cc1)c1ccc(NCc2ccc(F)cc2)c([N+](=O)[O-])c1 (stereo not drawn)	–	inconclusive [inhibitor, single point]
O=S(=O)(Nc1nc2n(n1)C(c1ccccc1)C=C(c1ccc(Cl)cc1)N2)c1ccccc1 (stereo not drawn)	–	inconclusive [inhibitor, single point]
CC1=C(n2nnc3ccccc32)C(c2ccccc2)C(C#N)=C(N)O1 (stereo not drawn)	–	inconclusive [inhibitor, partial curve]
Cc1ccc2nc(/C(C#N)=C/c3ccc(-c4cccc(Cl)c4)o3)[nH]c2c1	–	active: 8.2 µM
O=C(O)c1ccc(NS(=O)(=O)c2cccc(C(=O)Nc3ccccc3[N+](=O)[O-])c2)cc1	–	inconclusive [inhibitor, partial curve, poor fit]
Cc1c(C(=O)N/N=C/C(C)C)[nH]c2c([N+](=O)[O-])cccc12	–	inconclusive [inhibitor, single point]
CCOC1=C2CN(S(=O)(=O)c3ccc(C)cc3)[C@H](c3cccc4ccccc34)C[C@H]2C(C#N)(C#N)C(C#N)(C#N)C1	inactive: -20.1%	–
CCCCn1c(N)c(N(Cc2ccccc2OC)C(=O)c2ccc([N+](=O)[O-])s2)c(=O)[nH]c1=O	inactive: -2.93%	–
CN(C)c1ccc(/C=C/c2ccnc3ccccc23)cc1C=O	–	active: 5.17 µM
Cc1cccc(N=C2NC(=O)/C(=C/c3cccn3C)S2)c1	inactive: -23.6%	–
COc1ccc(C(=O)C[n+]2cccc3cc(Cl)ccc32)cc1	–	active: 16.4 µM
Brc1ccc2c(c1)[C@H]1OCC[C@H]1[C@@H](c1cccs1)N2	–	inconclusive [inhibitor, single point]
O=[N+]([O-])c1ccc(/C=N/Nc2ccc3ccccc3c2)o1	–	active: 4.98 µM

Reference: PubChem BioAssay AID651813 (National Center for Advancing Translational Sciences (NCATS), 2012)
